The supplement of paper PMC10320760
This is a noisy data set.

B1: Ydj1; a variant is named by its letters at X, in order (parent)
chain: MVKETKFYDILGVPVTATDVEIKKAYRKCALKYHPDKNPSEEAAEKFKEASAAYEILSDPEKRDIYDQFGEDGLSGAGGAGGFPGGGFGFGDDIFSQFFGAGGAQRPRGPQRGKDIKHEISASLEELYKGRTAKLALNKQILCKECEGRGGKKGAVKKCTSCNGQGIKFVTRQMGPMIQRFQTECDVCHGTGDIIDPKDRCKSCNGKKVENERKILEVHVEPGMKDGQRIVFKGEADQAPDVIPGDVVFIVSERPHKSFKRDGDDLVYEAEIDLLTAIAGGEFALEHVSGDWLKVGIVPGEVIAPGMRKVIEGKGMPIPKYGGYGNLIIKFTIKFPENHFTSEENLKKLEEILPPRIVPAIPKKATVDECVLADFDPAKYNRTRASRGGANYDSDEEEQGGEGVQCXXX

Variants of: B1
Assay: enrichment factor, frequency at 37 °C / frequency at 25 °C (thermotolerance selection) (ratio); higher = more growth at 37 °C, higher likelihood of farnesylation
Conditions: with Saccharomyces cerevisiae ydj1Δ (yWS304); selective temperature 37 °C; reference temperature 25 °C

Variant	enrichment factor
MVY	1.57
NVY	2.9
PVY	0.93
QVY	1.69
RVY	1.1
SVY	1.24
TVY	1.13
VVY	1.01
WVY	1.27
CVY	0.904
YVY	2.84
DWA	1.02
EWA	6.02
FWA	2.17
GWA	4.29
HWA	4.85
IWA	0.29
KWA	1.61
AWA	1.82
LWA	0.463
MWA	1.74
NWA	2.32
PWA	1.18
QWA	1.16

Variant	enrichment factor
RWA	1.74
SWA	0.827
TWA	3.47
VWA	4.63
WWA	0.708
CWA	0.421
YWA	1.91
DWC	0.116
EWC	0.483
FWC	0.302
GWC	0.965
HWC	0.463
IWC	0.695
KWC	0.178
AWC	0.695
LWC	1.16
MWC	0.386
PWC	0.158
QWC	0.869
RWC	0.695
SWC	0.965
TWC	0.869
VWC	3.09
WWC	0.0362

Variant	enrichment factor
CWC	0.044
YWC	0.145
DWD	0.143
EWD	0.577
FWD	0.443
GWD	0.176
HWD	0.309
IWD	1.71
KWD	1.52
AWD	1.63
LWD	1.6
MWD	1.05
NWD	1.09
PWD	1.11
QWD	1.52
RWD	1.46
SWD	0.798
TWD	1.52
VWD	2.28
WWD	0.639
CWD	0.309
YWD	0.305
DWE	0.15
EWE	1.61

Variant	enrichment factor
FWE	0.431
GWE	0.981
HWE	1.12
IWE	1.19
KWE	1.75
AWE	1.82
LWE	1.72
MWE	1.64
NWE	2.04
PWE	1.75
QWE	2.1
RWE	1.61
SWE	1.82
TWE	2.26
VWE	1.1
WWE	0.915
CWE	0.812
YWE	0.443
DWF	0.388
EWF	0.969
FWF	1.47
GWF	1.45
HWF	1.64
IWF	0.906

Variant	enrichment factor
KWF	1.13
AWF	1.29
LWF	1.16
MWF	1.22
NWF	1.89
PWF	1.62
QWF	1.24
RWF	0.92
SWF	1.76
TWF	1.38
VWF	0.165
WWF	1.59
CWF	0.678
YWF	1.58
DWG	0.371
EWG	2.87
FWG	2.04
GWG	2.14
HWG	2.07
IWG	2.08
KWG	3.19
AWG	2.16
LWG	0.409
MWG	0.842

Variant	enrichment factor
NWG	4.3
PWG	1.37
QWG	1.36
RWG	2.19
SWG	1.29
TWG	2.03
VWG	0.993
WWG	1.17
CWG	0.528
YWG	2.56
DWH	0.172
EWH	1.76
FWH	0.648
GWH	0.486
HWH	1.22
IWH	1.64
KWH	1.34
AWH	1.19
LWH	3.37
MWH	2.11
NWH	1.86
PWH	1.44
QWH	2.54
RWH	1.85

Variant	enrichment factor
SWH	2.12
TWH	4.32
VWH	1.66
WWH	1.1
CWH	0.541
YWH	0.594
DWI	0.315
EWI	1.33
FWI	2.17
GWI	1.12
HWI	1.63
IWI	1.43
KWI	1.06
AWI	0.772
LWI	1.68
MWI	1.41
NWI	1.7
PWI	1.18
QWI	1.56
RWI	0.935
SWI	1.39
TWI	1.32
VWI	4.05
WWI	1.81

Variant	enrichment factor
CWI	0.279
YWI	1.24
DWK	0.147
EWK	0.245
FWK	0.224
GWK	0.0699
HWK	0.194
IWK	0.526
KWK	0.151
AWK	1.04
LWK	0.769
MWK	0.246
NWK	0.111
PWK	0.236
QWK	0.237
RWK	0.146
SWK	0.172
TWK	0.379
VWK	0.938
WWK	0.283
CWK	0.188
YWK	0.172
DWL	0.382
EWL	1.23

Variant	enrichment factor
FWL	1.89
GWL	0.692
HWL	1.27
IWL	1.78
KWL	0.882
AWL	1.75
LWL	2.08
MWL	1.85
NWL	1.29
PWL	1.63
QWL	1.8
RWL	1.05
SWL	1.41
TWL	2.17
VWL	1.92
WWL	1.69
CWL	0.505
YWL	1.52
DWM	1.99
EWM	2.08
FWM	1.85
GWM	0.98
HWM	0.827
IWM	1.16

Variant	enrichment factor
KWM	1.16
AWM	0.463
LWM	4.05
MWM	0.331
NWM	0.901
PWM	0.703
QWM	1.05
RWM	0.409
SWM	1.47
TWM	2.32
VWM	1.01
WWM	2.51
CWM	0.515
YWM	1.16
DWN	0.348
EWN	1.83
FWN	2.68
GWN	1.81
HWN	2.23
IWN	1.54
KWN	1.64
AWN	4.4
LWN	3.47
MWN	1.24

Variant	enrichment factor
NWN	2.19
PWN	1.75
QWN	1.96
RWN	2.17
SWN	1.78
TWN	1.88
VWN	1.16
WWN	1.87
CWN	0.502
YWN	2.72
DWP	0.188
EWP	0.138
FWP	1.17
GWP	0.129
HWP	0.566
IWP	0.211
KWP	0.19
AWP	0.141
LWP	0.151
MWP	0.236
NWP	0.168
PWP	0.181
QWP	0.163
RWP	0.131

Variant	enrichment factor
SWP	0.174
TWP	0.143
VWP	0.242
WWP	1.23
CWP	0.342
YWP	0.23
DWQ	2.53
EWQ	2.5
FWQ	1.25
GWQ	1.55
HWQ	1.8
IWQ	1.54
KWQ	3.56
AWQ	1.3
LWQ	2.58
MWQ	1.12
NWQ	3.47
PWQ	1.42
QWQ	3.05
RWQ	1.42
SWQ	2.57
TWQ	2.51
VWQ	1.45
WWQ	1.01

Variant	enrichment factor
CWQ	0.307
YWQ	2.51
DWR	0.113
EWR	0.132
FWR	0.272
GWR	0.0616
HWR	0.113
IWR	1.25
KWR	0.207
AWR	0.169
LWR	0.239
MWR	0.234
NWR	0.2
PWR	0.138
QWR	0.129
RWR	0.121
SWR	0.124
TWR	0.336
VWR	1.51
WWR	0.322
CWR	0.677
YWR	0.0969
DWS	0.499
EWS	1.84

Variant	enrichment factor
FWS	2.7
GWS	1.85
HWS	2
IWS	2.15
KWS	1.81
AWS	3.37
LWS	0.515
MWS	2.22
NWS	4.22
PWS	1.46
QWS	2.4
RWS	2.32
SWS	1.2
TWS	1.65
VWS	1.16
WWS	1.61
CWS	0.599
YWS	3.09
DWT	0.403
EWT	1.47
FWT	1.84
GWT	1.66
